Molecular target: recombinant human Galectin-9 (human, UniProt O00182 1-355)
Experiment: SPR

B1: human 4-1BB.Fc, full-length extracellular 4-1BB (CRD1-4, […]) fused to human IgG1 Fc (Fc fusion)
chain: not shown
Kd: ~85 nM
